Results published in PubChem BioAssay AID588855 (National Center for Advancing Translational Sciences (NCATS), 2011).
The campaign covered roughly 410,000 compounds. About 5,000 (1.2%) were called active. Inconclusive means that the source gave no clear call. Such entries were picked first, then a sample of the others. The call rests on the fitted dose curve; in most records, active means well fitted inhibition curve with a large enough effect; inconclusive means small, poorly fitted or top-dose-only effect; inactive means no such curve, though single readings can be large or run the other way. A potency beside an inconclusive call is a rough fit, not a confirmed value.

Test: qHTS for Inhibitors of TGF-b; further: nearly all actives have a fitted effect of over 65% in size
Conditions: HepG2 CAGA-GFP TGF-b/SMAD3 reporter, GFP fluorescence, 18 h, TGF-beta stimulated, 500 pg/mL final; series mostly up to 46.1 µM
Procedure, shortened: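 GFP signal (ex488/em500-530) from TGF-beta-stimulated HEPG2 CAGA-GFP cells, 500 pg/mL final, 18 h at 37 degrees C in DMEM plus 1% FBS, normalized to unstimulated and DMSO-stimulated controls.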
Potency means the concentration at half of the fitted maximal effect; tags describe the fitted curve by direction and shape.

| Compound | Potency |
| --- | --- |
| CCC(=O)Nc1cc(-c2nn(C)c(=O)c3ccccc23)ccc1N1CCOCC1 | inactive |
| CN(c1ccc(F)cc1)S(=O)(=O)c1ccc(Cl)c(C(=O)NCC2(N3CCOCC3)CCCCC2)c1 | inconclusive: 35.5 µM [inhibitor, partial curve, poor fit] |
| CC(C)(C)S(=O)(=O)c1nc2ccccc2s1 | inactive |
| CC1Oc2ccccc2C=C1/C=N/NC(=O)c1ccccc1 (stereo unspecified) | inactive |
| O=C(Nn1cnc2ccccc2c1=O)c1ccc([N+](=O)[O-])cc1Cl | inconclusive: 6.31 µM [inhibitor, single point] |
| Cc1cccc([C@@H]2[C@@H]3C(=O)N(Cc4ccccc4)C(=O)[C@@H]3[C@]3(Cc4ccccc4)C(=O)N(c4cccc(Cl)c4)C(=O)N23)c1 | inconclusive: 35.5 µM [inhibitor, partial curve, poor fit] |
| COc1ccc(Cn2c(C(=O)O)c(CNCCc3cc(OC)ccc3OC)c3ccc(C)cc32)cc1 | inconclusive: 20 µM [inhibitor, single point] |
| Cc1cc(C(=O)N[C@@H](c2ccccc2)[C@]2(C)C[C@H]2[C@@H](C)C(=O)Nc2ccc3ccccc3c2)no1 | inconclusive: 35.5 µM [inhibitor, partial curve, poor fit] |
| Cc1ccc(NC(=O)c2sccc2C)cc1S(=O)(=O)N(C)C | inconclusive: 3.98 µM [inhibitor, partial curve, poor fit] |
| CC1(C(=O)NCc2cccc3ccccc23)CCN1Cc1ccc(OC(F)(F)F)cc1 (stereo unspecified) | inconclusive: 28.2 µM [inhibitor, single point] |
| Cc1ccc2c(c1)C(c1ccccc1)N(C(=O)Cc1ccc(F)cc1)CC(=O)N2 (stereo unspecified) | inconclusive: 0.282 µM [inhibitor, full curve, poor fit] |
| COc1cc(CNC(C)(C)CO)cc(Br)c1OCc1ccc(Cl)cc1 | inconclusive: 22.4 µM [inhibitor, single point] |
| CCCS(=O)(=O)NCCc1sc2nc(-c3ccc(F)cc3)nn2c1C | inactive |
| C/C(=N\OC(=O)Nc1ccc(Cl)cc1)c1ccc(F)c(F)c1 | inactive |
| Cn1c(=O)[nH]c2cc(-c3noc(-c4ccc(C#N)cc4)n3)ccc21 | inactive |
| O=C(Nc1ccc(F)cc1)Nc1ccc(S(=O)(=O)N2CCCC2)cc1 | inconclusive: 20 µM [inhibitor, single point] |
| Cc1cc(C)n(-c2nnc(Nc3ccc(C)c(Cl)c3)c3ccccc23)n1 | active: 10 µM |
| Cc1cccc(C(=O)Nc2cccc(C(=O)NC3CCCC3)c2)c1 | inactive |
| O=C(c1cccn1-c1nnc(N2CCCC2)s1)N1CCN(c2ccc(Cl)cc2)CC1 | inconclusive: 0.112 µM [inhibitor, full curve, poor fit] |
| CCOc1ccc(S(=O)(=O)N2CCCC2)cc1 | inactive |
| Cc1nnsc1C(=O)Nc1ccc(S(=O)(=O)N2CCCCC2C)cc1 (stereo unspecified) | inconclusive: 11.2 µM [inhibitor, partial curve, poor fit] |
| COc1ccc(-n2c(-c3ccc(Br)cc3)c[n+]3c2SC(C)C3)cc1 (stereo unspecified) | inactive |

| Compound | Potency |
| --- | --- |
| Cc1nonc1NC(=O)CSc1nc(C23CC4CC(CC(C4)C2)C3)nc2ccccc12 | inconclusive: 12.6 µM [inhibitor, partial curve, poor fit] |
| Clc1ccc(CO/N=C/c2c(-c3ccccc3)nc3n2CCS3)c(Cl)c1 | inconclusive: 11.2 µM [inhibitor, partial curve] |
| Cc1ccc(S(=O)(=O)NNC(=O)C2Cc3c(ccc4ccccc34)O2)cc1 (stereo unspecified) | inactive |
| CC(C)Cn1c(N)c(C(=O)COC(=O)[C@@H]2CCCN2C(=O)c2cccs2)c(=O)n(C)c1=O | inconclusive: 12.6 µM [inhibitor, single point] |
| Fc1ccc(CSc2nc3ccccc3[nH]2)c2ccccc12 | inconclusive: 35.5 µM [inhibitor, single point] |
| CN(Cc1ccccc1)C(=O)c1nc(-c2ccc(Cl)cc2)n2c1CCCCC2 | inconclusive: 12.6 µM [inhibitor, single point] |
| COc1ccc(Nc2c3c(nc4ccc(NC(=O)c5ccc(F)cc5)cc24)CCCC3)cc1OC | inconclusive: 12.6 µM [inhibitor, partial curve, poor fit] |
| CC(=O)Nc1nc(C)c(-c2csc(Nc3cccc(C(C)=O)c3)n2)s1 | inconclusive: 7.94 µM [inhibitor, partial curve] |
| O=C1c2ccccc2C(O)N1CCN1CCOCC1 (stereo unspecified) | inactive |
| CN(C(=O)CN1CCN(c2cc(-c3cccc4oc5ccccc5c34)ncn2)CC1)c1ccccc1 | inactive |
| CCn1c(CN2CCCCC2)nc2cc(NC(=O)c3cc(OC)c(OC)c(OC)c3)ccc21 | inactive |
| Oc1ccc(CNCC2COc3ccccc3O2)cc1 (stereo unspecified) | inactive |
| COc1ccc(NS(=O)(=O)c2ccc3[nH]c4c(c3c2)CCCC4)cc1OC | inconclusive: 17.8 µM [inhibitor, partial curve, poor fit] |
| CC(C)[C@H](CO)N(Cc1cccc(F)c1)c1nc(Nc2cccc(Cl)c2)c2ncn(C(C)C)c2n1 | inconclusive: 0.398 µM [inhibitor, full curve, poor fit] |
| CNC(=O)c1cccc2nc3ccccc3nc12 | inconclusive: 22.4 µM [inhibitor, single point] |
| CCCCOc1cccc(C(=O)N(Cc2ccc(C)o2)c2ccccn2)c1 | inconclusive: 22.4 µM [inhibitor, partial curve, poor fit] |
| COc1ccc(-c2coc3c(C(=O)NCc4ccccc4)cccc23)c(C)c1 | inconclusive: 28.2 µM [inhibitor, single point] |
| CCC(C)n1c(S(=O)(=O)O)nc2ccccc21 (stereo unspecified) | inactive |
| CC(=O)Nc1ccc2c(COC(=O)CC3Sc4ccccc4NC3=O)cc(=O)oc2c1 (stereo unspecified) | inactive |
| C/C(=N\NC(=O)c1ccncc1)c1cc2ccccc2oc1=O | inconclusive: 1.58 µM [inhibitor, partial curve, poor fit] |
| COc1ccc(CN(C)C(=O)c2cc(S(=O)(=O)NCc3ccccc3)ccc2C)c(OC)c1 | inconclusive: 12.6 µM [inhibitor, partial curve, poor fit] |
| COc1ccccc1CNC(=O)CSCc1cnn(-c2ccccc2)c1-n1cccc1 | inconclusive: 35.5 µM [inhibitor, single point] |

| Compound | Potency |
| --- | --- |
| Nc1ccccc1Nc1cc(-c2ccccc2)[nH]n1 | inconclusive: 14.1 µM [inhibitor, single point] |
| Cc1ccc(OCCn2c(=S)[nH]c3c(N)ncnc32)cc1 | inconclusive: 1.26 µM [inhibitor, full curve, poor fit] |
| O=C(CSc1cccc2cccnc12)N1CCCC1 | inconclusive: 3.55 µM [inhibitor, full curve, poor fit] |
| CCOC(=O)C(Sc1cc(-c2ccccc2)nc2ncnn12)C(C)=O (stereo unspecified) | inactive |
| O=C(COC(=O)CCc1ccc(S(=O)(=O)N2CCOCC2)cc1)NC(=O)NC1CCCCC1 | inconclusive: 3.98 µM [inhibitor, single point] |
| O=C(NC1(C(F)(F)F)NC(=O)N(CCc2ccccc2)C1=O)c1ccc(Cl)cc1 (stereo unspecified) | inconclusive: 12.6 µM [inhibitor, partial curve, poor fit] |
| O=S(=O)(Cc1ccccc1)N1CCN(c2ncccn2)CC1 | inactive |
| CCOC(=O)Cn1c2c(c(=N)c3ccccc31)CCC2 | inconclusive: 35.5 µM [inhibitor, single point] |
| Cc1ccc(NNC(=O)C(O)(c2cccc(C(F)(F)F)c2)c2cccc(C(F)(F)F)c2)cc1 | inconclusive: 35.5 µM [inhibitor, partial curve, poor fit] |
| CCCCC1C(=O)NN(c2ccccc2)C1=O (stereo unspecified) | inactive |
| Cc1ccc(Cl)cc1N1CCN(CCCNC(=O)c2ccc3nc(N4CCCCC4)sc3c2)CC1 | inconclusive: 2.82 µM [inhibitor, partial curve] |
| COC(=O)c1ccc(NC(=O)c2cccc(N3C(=O)CCC3=O)c2)cc1 | inactive |
| O=C1OCCN1C(=O)[C@H]1[C@H](c2ccccc2)C(c2ccc(F)cc2)=NN1c1ccc(Br)cc1 | inconclusive: 14.1 µM [inhibitor, partial curve, poor fit] |
| COc1ccc(Cn2nnnc2C(c2cc3ccc(OC)cc3[nH]c2=O)N2CCC(C)CC2)cc1 (stereo unspecified) | inconclusive: 35.5 µM [inhibitor, single point] |
| CC(O)(c1ccc(F)c(F)c1)c1nc(-c2ccccc2)cs1 (stereo unspecified) | inconclusive: 12.6 µM [inhibitor, single point] |
| O[C@@H](c1cc(C(F)(F)F)nc2c(C(F)(F)F)cccc12)[C@H]1CCCCN1 | active: 10 µM |
| Cc1cc(OCCCn2ccnc2)cc(C)c1Cl | inconclusive: 1.12 µM [inhibitor, full curve] |
| Cc1[nH]c2ccccc2c1C(=O)NS(=O)(=O)Nc1ccc(F)cc1 | inactive |
| CN1CCN(CCCNC(=O)c2ccc(/C=C3\Sc4ccccc4N(Cc4ccc(F)cc4)C3=O)cc2)CC1 | inconclusive: 17.8 µM [inhibitor, single point] |
| Oc1ccc(-c2csc(Nc3ccccn3)n2)cc1O | inconclusive: 22.4 µM [inhibitor, single point] |
| O=C(c1ccc(S(=O)(=O)Cc2cc(F)ccc2F)c([N+](=O)[O-])c1)N1CCCC1 | inconclusive: 35.5 µM [inhibitor, single point] |
| COc1ccc(S(=O)(=O)N2CCN(C(=O)NCc3ccc(C)cc3)CC2)cc1 | inconclusive: 15.8 µM [inhibitor, single point] |
